Assay results published in PubChem BioAssay AID743279 (National Center for Advancing Translational Sciences (NCATS), 2014).
The whole screen tested about 360,000 compounds, of which about 17,000 (4.7%) were called active. This list was built around the results that the source calls inconclusive (neither active nor inactive); the mix of calls is not that of the screen. Cut-off read from the data, not from the text of the source: active = activity change below about -50%; inconclusive = mostly about -30% to -49%; inactive = weaker than that.

experiment: qHTS for Inhibitors of Inflammasome Signaling: IL-1-beta AlphaLISA Primary Screen; conditions: THP-1 LPS/ATP IL-1B secretion, 16 h; at 57.5 µM, hits give low values
Method in brief: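 THP-1 cells pretreated 1 hr with compounds (up to 57.5 uM final), then stimulated with LPS (250 ng/mL final) plus ATP (1.25 mM final); secreted IL-1B measured by AlphaLISA after 16 hr, decreased signal indicating inhibition.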
% is set by controls: 0 for no effect and ±100 for the full control effect.

Activity change, inconclusive:
COc1ccccc1CNC(=O)C(=O)NCCC1CCCCN1S(=O)(=O)c1cccs1 (configuration not stated) -35.9%
Cc1ccc(-n2nc3c(c2NC(=O)/C=C\c2ccc4c(c2)OCO4)CSC3)c(C)c1 -31.5%
CCN(CC)CCNC(=O)c1cn(C)c2ccc(S(=O)(=O)N(C)C3CCCCC3)cc2c1=O -32%
CCN(C(=O)COC(=O)c1cc(S(=O)(=O)N2CCOCC2)c(Cl)cc1Cl)C1CCS(=O)(=O)C1 (configuration not stated) -39.9%
O=C(CSc1ccc(Br)c2cccc(Cl)c12)Nc1ccc(S(=O)(=O)Nc2nccs2)cc1 -42.1%
CSc1ccc(S(=O)(=O)NCC(=O)OCC(=O)N(Cc2ccccc2)C(C)C)cc1[N+](=O)[O-] -33.7%
COc1cc(C(=O)N2CCC(n3cnc4cc(F)ccc43)CC2)cc(OC)c1OC -31.8%
Cc1nonc1CN(C)C(=O)c1cc(COc2ccc(F)cc2Cl)on1 -31.5%
CC1(C)CC(=O)C2=C(C1)NC(SCC(=O)Nc1ccccc1)=C(C#N)C21CCCCC1 -48.3%
O=C(c1ccc(Cn2c(=O)[nH]c3ccsc3c2=O)cc1)N1CCN(c2ccccc2)CC1 -31.3%
Cc1ccc(C)c2sc(NC(=O)c3ccc(N4CCCCC4)c([N+](=O)[O-])c3)nc12 -47.3%
C[C@@H]1CCCCO[C@H](CN(C)Cc2ccc3c(c2)OCO3)[C@@H](C)CN([C@H](C)CO)C(=O)c2cc(NC(=O)c3ccccc3)ccc2O1 -35.3%
CN(C)c1ccc(C=C2C=Cc3ccccc32)cc1 -32%
CCOc1ccc2nc(NC(=O)CSc3cn[nH]n3)sc2c1 -38.4%
CNC(=S)N(CCc1c(C)[nH]c2ccc(Cl)cc12)Cc1cc(OC)c(OC)c(OC)c1 -46.5%

Activity change, inactive:
Cc1ccc(S(=O)(=O)CCSc2cccc(C(=O)O)c2)cc1 -19.8%
CC[C@H](C)/C=C(C)/C=C/C1=CC2=CC(=O)[C@]3(C)OC(=O)[C@@H](C(C)=O)[C@@H]3C2=CO1 10.3%
COC(=O)c1sccc1NC(=O)Nc1ccccc1Cl -20.3%
O=C(COc1cccc(NC(=O)c2ccco2)c1)c1ccc(F)cc1 -0.309%
CCNC(=O)CN(c1ccc(CC)cc1)S(C)(=O)=O -0.807%
CCc1ccc(NS(=O)(=O)c2cccs2)cc1 5.56%

Activity change, active:
CCCCC[n+]1cccc2c3ccccc3ccc21 -76.5%
